Reference: PubChem BioAssay (NCI)
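Cells were grown in 96-well plates and exposed to each compound for 48 hours at five concentrations; endpoints were interpolated linearly between bracketing concentrations, or set to the highest concentration if not reached. GI50 is the concentration that inhibits growth by half. TGI marks complete inhibition of growth.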

System: NCI-H322M lung
Assay: NCI tumour cell line growth inhibition, 48 h

COc1ccc([C@H]2[C@H](O)C(=O)N2c2cc(OC)c(OC)c(OC)c2)cc1F
GI50: < 0.01 µM
TGI: > 100 µM
